# According to the supplement of paper PMC11417369:
# Some of the results follow.
# Tested on: PfSIP2 AP2 domain 1 (GST-tagged)
# Assay: gcPBM binding intensity (ln(normalized median fluorescence intensity)); higher = stronger DNA binding
# Summary of the method: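 For binding intensity, the highest Masliner-normalised natural-log median intensity across replicate spots of either probe orientation was taken. Protein bound to the array was stained with Alexa488 anti-GST antibody and scanned at 488 nm. The protein, GST-tagged P. falciparum DNA-binding domains from E. coli at about 25 μg on average, had been applied for 1 h to an Agilent 4 × 180k array of primer-extended double-stranded 36-bp intergenic genomic probes and negative controls.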
row,Sequence,gcPBM binding intensity (ln)
1,TACAGAAATTTATATATATATATATATATATATATA [XGTACX_negctrl_site209],9.26
2,AAATCAAAAACGTTTACACACATTCTTATTTAAATA [CACACA_site790],7.08
3,TGAGACATGAATGCAAGTACAAAAAGGAGAACAAAA [XGTACX_site6183],7.24
4,TACATATATTTTTTATGTACTTACTTGTGTGTTTAT [XGTACX_site5126],7.09
5,TTTTATAATTTCAAAGGATTCTTTAATATTATAAAT [CACACA_negctrl_site1812],6.7
6,AAATTATATATAATAAATAATTTCTTTTTCTAAAAG [CACACA_negctrl_site8],6.73
7,AAAAAAAAAAAAAAAAGTACACACTTTTGCCTACAT [XGTACX_site6583],7.78
8,AATAATTGCTAAAGGTGTACAATACGTATATAAGAA [XGTACX_site4910],7.29
9,TTAATAACAAAATAAACACACATATATAAATACACA [CACACA_site6849],7.03
10,TTATATTTTTTTTGTAGTACATTATAGAATACACAC [XGTACX_site969],7.37
11,AAATGTTGAAATGATACACACATATATATATATATA [CACACA_site2517],9.59
12,TTTATTAAAACAAAATGTACACACATATAATTTAAT [XGTACX_site1637],6.95
13,TAAATTCTGTTTAAAAGTACAAATAATATTGTGCCT [XGTACX_site7805],6.88
14,TTAATCTTCATAAAATGTACAGAAGATTGAATATTC [XGTACX_site6213],6.75
15,TGAAAGTGTATTAAAGTGCATATTATTTTATCTACC [GTGCAC_site9969],8.23
16,ATAATATTTTATAATTGTACTTTTTATAAATATAAA [XGTACX_site1940],6.98
17,CATATTTACATTAAGTGTACTTATGAATATATATAC [XGTACX_site7962],7.03
18,AAAATACATATATATATATATAATATTGTTGTTAAA [GTGCAC_negctrl_site519],7.19
19,ATATTTTTTTTCATTTGTACACATAAAATTATATAG [XGTACX_site8260],7.45

row,Sequence,gcPBM binding intensity (ln)
1,TTTTTATTTTTAGTAGTGCATTAATCATATGGTCAT [GTGCAC_site9879],8.78
2,TAAATAAATCCACATACACACACGACGCTAGTATAT [CACACA_site1060],6.73
3,AATATTTTATTTTTTCTCATTAAAAATTTTTTTTTT [CACACA_negctrl_site364],6.84
4,GATAGATAATATTTTAGTACATAAACAATTAAATAT [XGTACX_site4125],6.95
5,ATTATTCGTTTTAAATGTACTCATATAAACGATAAA [XGTACX_site7866],7.3
6,CAAAAGAAGGTAAACACACACACACCCATACAAAAA [CACACA_site3765],7
7,GAGCGTAATCTATTTGCACACTTATTTGTTCTTAAA [CACACA_site673],7.13
8,GTGTATAATATAGGATGTACAATAAAACACCGATTG [XGTACX_site7429],7.08
9,TTGTTTATCAACAGCACACACAACAACAACAACAAC [CACACA_site458],7.25
10,ATAAAAACATAAACAAATCAAAAAAAAAAAAAAAAA [CACACA_negctrl_site13],6.85
11,AAATAATGAAACAAAGTGCATAAAAATATACATATA [GTGCAC_site9467],7.75
12,CATTAAAATATGAGATGTACACAATATCTATTATAT [XGTACX_site4979],6.98
13,ATGGATTATACGTGCACACATATATACCAATAAATA [CACACA_site4524],10.5
14,ATTTAAATATCTTCTTTTTTTTTTTTTTTTGAAATT [CACACA_negctrl_site1074],6.6
15,GTGTACAGACACAAAATATATACATATATATATATA [CACACA_negctrl_site1796],9.01
16,TGTTATATGTTCAAATGTACAAATCATATACATGTT [XGTACX_site3192],6.86
17,AATATATAAACCGAACGTACATATTTTTTATACACC [XGTACX_site2121],7.08
18,ATTATTTTCTCATAGAGTACAAATGTTGTTGTTGTC [XGTACX_site1062],7.16
19,TATTTTCATAATAAAAAAAAATAATTTAAAAAATAT [CACACA_negctrl_site748],6.75

row,Sequence,gcPBM binding intensity (ln)
1,AATGGCAAAATAGGCACACACACATATACATATATA [CACACA_site1058],7.01
2,TGTGCACATAATTAGTGTACATTTTTTATTTAGACA [XGTACX_site317],10.9
3,AATTATATTTGAAATACACACATAAAAATCATATAG [CACACA_site3468],6.91
4,CTTATTGATTTAAAAAGTACATATATGTATATACAC [XGTACX_site4072],7.05
5,AAAAAAAAAAAAAATACACACATATAAATATAAATA [CACACA_site6189],7.3
6,AGATTTAAATATCATACACACTTTATATATAATACA [CACACA_site4688],6.9
7,TTATATAGGTCATTCATAAATACAGTTTTTAAAAAA [CACACA_negctrl_site1340],7.06
8,ATTTATTTCACAAAAACATGCAGTTTGAAATTGCCA [TGCATGCA_site910],6.74
9,AATTCATTATATATACGTACATATTTCTGTATAAAA [XGTACX_site6371],6.91
10,AAAAAAAAAAGACACACACACACATAAATATAAATA [CACACA_site6215],7.18
11,GCATAAATTATCATAACATAAATATAAAAATATAAT [GTGCAC_negctrl_site55],7.03
12,GATTATTTTATAAGTACACACATTTATATATAATAA [CACACA_site2573],7.34
13,TTCATGCTTATATGTGCACACACAAAAGAAAAGAAA [CACACA_site1656],9.6
14,AAATAATAAATTATAACACACATATATATATATATA [CACACA_site4045],9.27
15,ATAATACAATTTATAACACACACACTATAATACATA [CACACA_site8338],7.1
16,GGAAAGACAGTTCACAGTACCCAGTAACTCTACGGA [XGTACX_site2009],6.51
17,CAAAAATAATAGAATACATGCAAAAATAAATGTATA [TGCATGCA_site196],6.77
18,AAAAATAAAGGGTGTGCACACAAAAATATATATATA [CACACA_site1727],9.1
